From PubChem BioAssay AID504339 (National Center for Advancing Translational Sciences (NCATS), 2011)
About 17,000 (4.4%) of roughly 390,000 compounds were called active. Inconclusive results, whose numbers are uncertain, are shown with a selection of clear calls. The call rests on the fitted dose curve; in most records, active means well fitted inhibition curve with a large enough effect; inconclusive means small, poorly fitted or top-dose-only effect; inactive means no such curve, though single readings can be large or run the other way. Potencies of inconclusive entries are doubtful fits and often do not repeat.

The molecules below were run against Lysine-specific demethylase 4A (Homo sapiens) (UniProt O75164) (assay: qHTS Assay for Inhibitors of JMJD2A-Tudor Domain). Conditions: AlphaScreen JMJD2A-Tudor / H3K4me3 peptide binding; activity change, negative = inhibition: at 114 µM (top of the series).
Further: nearly all actives have a fitted effect of over 50% in size.
On the % scale 0 is the no-effect control and ±100 the full control effect; potency means the concentration at half of the fitted maximal effect; tags describe the fitted curve by direction and shape.

Chain of UniProt O75164 (O75164 whole entry, looked up, the tested form may be a part): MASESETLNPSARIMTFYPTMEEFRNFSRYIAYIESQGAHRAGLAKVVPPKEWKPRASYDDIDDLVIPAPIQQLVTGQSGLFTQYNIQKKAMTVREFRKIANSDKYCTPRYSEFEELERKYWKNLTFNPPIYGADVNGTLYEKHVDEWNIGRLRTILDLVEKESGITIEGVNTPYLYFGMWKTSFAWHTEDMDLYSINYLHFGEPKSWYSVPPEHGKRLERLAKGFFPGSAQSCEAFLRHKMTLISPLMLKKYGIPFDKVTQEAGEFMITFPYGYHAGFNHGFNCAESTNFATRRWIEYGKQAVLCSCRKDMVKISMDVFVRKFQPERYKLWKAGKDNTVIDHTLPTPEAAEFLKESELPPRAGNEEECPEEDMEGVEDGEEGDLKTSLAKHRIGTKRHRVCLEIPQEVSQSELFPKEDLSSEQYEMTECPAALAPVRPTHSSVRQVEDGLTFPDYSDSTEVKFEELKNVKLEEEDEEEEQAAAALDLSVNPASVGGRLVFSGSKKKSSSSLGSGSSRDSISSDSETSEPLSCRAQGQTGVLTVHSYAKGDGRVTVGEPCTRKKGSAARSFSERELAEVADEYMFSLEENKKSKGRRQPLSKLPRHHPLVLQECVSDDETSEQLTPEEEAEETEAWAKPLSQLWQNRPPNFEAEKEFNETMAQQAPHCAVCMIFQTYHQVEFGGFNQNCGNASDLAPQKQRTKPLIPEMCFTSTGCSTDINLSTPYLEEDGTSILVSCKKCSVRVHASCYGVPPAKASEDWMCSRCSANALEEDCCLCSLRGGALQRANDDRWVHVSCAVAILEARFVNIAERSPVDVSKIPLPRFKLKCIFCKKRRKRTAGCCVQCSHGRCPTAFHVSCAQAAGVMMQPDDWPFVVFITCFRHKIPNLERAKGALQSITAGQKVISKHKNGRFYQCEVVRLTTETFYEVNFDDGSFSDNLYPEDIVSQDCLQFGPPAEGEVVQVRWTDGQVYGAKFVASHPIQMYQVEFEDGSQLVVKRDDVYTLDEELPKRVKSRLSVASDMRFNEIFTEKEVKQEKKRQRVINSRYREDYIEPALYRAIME

SMILES | Potency | activity change, negative = inhibition
Cn1cccc1CC(=O)NNC(=S)Nc1ccc(F)cc1 | inconclusive: 63.1 µM [inhibitor, single point] | 
CCCN(CCC)S(=O)(=O)c1ccc(C(=O)Nc2nnc(COC)o2)cc1 | inactive | 
O=C(O/N=C1/CCCc2occc21)c1ccc(F)cc1 | inconclusive: 14.1 µM [inhibitor, full curve] | 
CC1CCN(CCCCOc2ccccc2[N+](=O)[O-])CC1 | active: 4.47 µM | 
COc1cc(C(=S)N2CCOCC2)cc(OC)c1OC(=O)c1ccc(C)cc1 | inconclusive: 79.4 µM [inhibitor, partial curve] | 
N#C/C(=C\c1cccc([N+](=O)[O-])c1)C(=O)NCc1ccc(Cl)cc1 | inconclusive: 2.82 µM [inhibitor, full curve, poor fit] | 
COc1ccc(NC(=O)c2c(NCc3sccc3C)sc3c2CCCCC3)c(OC)c1 | inconclusive: 12.6 µM [inhibitor, full curve] | 
CC(C)c1ccc(NC2CCCN(C(=O)c3ccc(N4CCOCC4)cc3)C2)cc1 (stereo not drawn) | inconclusive: 63.1 µM [inhibitor, partial curve, poor fit] | 
CCOc1ccc2[nH]c(=O)c(C(c3nnnn3C3CCCCC3)N3CCN(CC)CC3)cc2c1 (stereo not drawn) | inactive | 
Clc1ccccc1OCCCCN1CCCCC1 | active: 28.2 µM | 
CC1CCCN(C(=O)c2sc3cc([N+](=O)[O-])ccc3c2Cl)C1 (stereo not drawn) | inconclusive: 56.2 µM [inhibitor, partial curve] | 
C(=N\N1CCN(C2c3ccccc3-c3ccccc32)CC1)/c1cccs1 | inconclusive: 50.1 µM [inhibitor, partial curve] | 
O=C(Nc1ccc(Nc2ccccc2)cc1)Nc1ccccc1Cl | inconclusive: 12.6 µM [inhibitor, full curve] | 
COc1cccc(-n2c(C)c3c(OC)cccc(=O)c3c2C)c1 | inconclusive: 50.1 µM [inhibitor, partial curve] | 
C#CCOCCOCCOCCNc1nc(N2CCN(C(=O)[C@H]([C@@H](C)CC)n3cc(CCC(=O)O)nn3)CC2)nc(N2CCN(C(=O)[C@H](CCCCN)n3cc(CC(C)O)nn3)CC2)n1 (stereo partly drawn) | inconclusive: 100 µM [inhibitor, partial curve] | 
CCO/N=C(\N)c1[nH]ncc1Br | inactive | 
CCCC1C(c2ccco2)NC(c2ccco2)CC1(C)O (stereo not drawn) | active: 3.55 µM | 
CCCCCCn1c(O)c(/C=C2\C=NN=C2c2ccccc2)sc1=S | inconclusive: 10 µM [inhibitor, partial curve] | 
O=C(Nc1ccc(S(=O)(=O)Nc2nccs2)cc1)c1cc(-c2ccccc2Cl)nc2ccccc12 | inconclusive: 50.1 µM [inhibitor, partial curve] | 
Cc1cc(OCCOCCN2CCCC2)ccc1C(C)C | active: 5.01 µM | 
COc1cc(C=c2c3ccccc3n3c2cc(-c2ccccc2)[n+]3C)cc(OC)c1OC | active: 31.6 µM | 
O=C1[C@@H]2Cc3c([nH]c4ccccc34)C(c3ccc([N+](=O)[O-])cc3)N2C(=O)CN1C1CC1 (stereo partly drawn) | inconclusive: 31.6 µM [inhibitor, partial curve] | 

SMILES | Potency | activity change, negative = inhibition
Cc1c(/C(O)=C2/C(=O)C(=O)N(Cc3cccnc3)C2c2ccccn2)cnn1-c1ccccc1 (stereo not drawn) | inconclusive: 89.1 µM [inhibitor, partial curve, poor fit] | 
CC(=O)Nc1ccc(S(=O)(=O)NNC(=O)C(=O)NNc2ccccn2)cc1 | inconclusive: 89.1 µM [inhibitor, partial curve] | 
Cc1cc(C)c(C(=O)COC(=O)c2ccc([N+](=O)[O-])o2)cc1C |  | inactive: -21.8% [at 11.4 µM]
Cc1ccc(-c2nc3ccccc3c(=O)n2O)cc1 | active: 35.5 µM | 
CC(C)CNS(=O)(=O)c1cc2c3c(c1)CC(=O)N3CCC2 | inactive | 
CCOC(=O)/C(=C/Nc1ccc(F)cc1)[N+](=O)[O-] | inactive | 
CC1(OC(=O)C2CCCC2)C(=O)C=C2C=C(c3ccsc3)N(C3CCCC3)C=C2C1=O (stereo not drawn) | inconclusive: 56.2 µM [inhibitor, partial curve] | 
COc1cc(-c2nc3ccc(C)cn3c2NCc2ccccc2)ccc1SC1CCCCC1 | inconclusive: 50.1 µM [inhibitor, partial curve] | 
COc1cc(/C=C2\SC(N)=NC2=O)cc(OC)c1 | inconclusive: 14.1 µM [inhibitor, full curve, poor fit] | 
COc1cc(-c2cc(C(=O)Nc3cc(S(=O)(=O)N4CCOCC4)ccc3O)c3ccccc3n2)cc(OC)c1OC | inactive | 
CCC(=O)N1N=C(c2ccc(NS(C)(=O)=O)cc2)CC1c1ccc(N(C)C)cc1 (stereo not drawn) | inconclusive: 79.4 µM [inhibitor, partial curve] | 
FC(F)Oc1ccc(/C=N/c2c(-c3ccc(OC(F)F)cc3)nc3n2CCS3)cc1 | active: 50.1 µM | 
COc1ccc(-c2ccc(/C=C3\C(=O)N(c4ccccc4)N=C3c3ccccc3)o2)c([N+](=O)[O-])c1 | inconclusive: 70.8 µM [inhibitor, partial curve, poor fit] | 
CN(C(=O)CN(c1ccccc1)S(=O)(=O)c1ccc(F)cc1)C1CCS(=O)(=O)C1 (stereo not drawn) | inactive | 
CC1(C)Cc2c(sc3c2c(=N)n(Cc2ccco2)c(=O)n3Cc2ccc(F)cc2)CO1 | inconclusive: 56.2 µM [inhibitor, partial curve] | 
N#Cc1ccc(CN2CCN(C(=O)CCNS(=O)(=O)c3ccc(F)c(Cl)c3)CC2)cc1 | inactive | 
CCC(C(=O)OCC(=O)NC(=O)NC(C)(C)C)c1ccccc1 (stereo not drawn) | inconclusive: 14.1 µM [inhibitor, full curve] | 
COc1ccc(C2C3=C(CC(C)(C)CC3=O)Nc3c2c(=O)n(C)c(=O)n3C)cc1OC (stereo not drawn) | inconclusive: 12.6 µM [inhibitor, full curve] | 
Cc1cc(N=Nc2ccc(Cl)cc2)cc(CN2CCOCC2)c1O | active: 15.8 µM | 
COc1ccccc1/C=N/Nc1cc(N(C)C)nc(N(C)C)n1 | inconclusive: 39.8 µM [inhibitor, partial curve] | 
O=[N+]([O-])c1c(C(Cl)Cl)nn(-c2ccccc2)c1N1CCCC1 | active: 25.1 µM | 
